Measured values reported in PubChem BioAssay AID602233 (National Center for Advancing Translational Sciences (NCATS), 2012).
Out of some 380,000 compounds screened, about 170 (0.045%) were called active. Inconclusive means that the source gave no clear call. Such entries were picked first, then a sample of the others. The call rests on the fitted dose curve; in most records, active means well fitted inhibition curve with a large enough effect; inconclusive means small, poorly fitted or top-dose-only effect; inactive means no such curve, though single readings can be large or run the other way. No potency is given beside an inconclusive call; the fits are too rough.

target: Phosphoglycerate kinase, glycosomal (Trypanosoma brucei brucei) (UniProt P07378); experiment: qHTS Assay to Find Inhibitors of Phosphoglycerate Kinase; conditions: PGK/GAPDH coupled, Kinase-Glo luminescence, 60 min; series mostly up to 57.5 µM; further: nearly all actives have a fitted effect of over 60% in size
Procedure, shortened: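 Luminescent ATP detection (Kinase-Glo Plus) follows a 60-minute room-temperature incubation, with wells lacking PGK as controls. Buffer: 100 mM TEA (pH 7.6), 5 mM MgCl2, 0.01% Tween-20. Coupling enzyme GAPDH (100 nM final) supplies unstable 1,3-BPG in-well.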
Potency means the concentration at half of the fitted maximal effect; tags describe the fitted curve by direction and shape.

Row | Structure (SMILES) | Potency
1 | O=C(Nc1ccccc1)Nc1ccc(C(=O)N2CCCC2)cc1 | inconclusive [inhibitor, partial curve, poor fit]
2 | CN(C)S(=O)(=O)c1cc(NC(=O)COC(=O)/C=C/c2ccco2)ccc1Cl | inconclusive [inhibitor, partial curve]
3 | N#CC(C#N)=Cc1cccn1-c1ccc(C(=O)O)cc1 | inconclusive [inhibitor, partial curve, poor fit]
4 | O=C(CSc1nnc2ccccn12)NC(=O)c1cccc([N+](=O)[O-])c1 | inactive
5 | COc1cccc(NC(=O)C2CCCN(c3ncnc4onc(-c5ccc(F)cc5)c34)C2)c1 (stereo not drawn) | inactive
6 | O=C(COC(=O)/C=C/c1ccco1)Nc1cccc([N+](=O)[O-])c1 | inconclusive [inhibitor, single point]
7 | CCCCCCc1c(C)c2c(cc(C)c3c(C)coc32)oc1=O | inactive
8 | CCc1ccc(S(=O)(=O)c2nnn3c2nc(Nc2ccc(F)cc2)c2cc(Cl)ccc23)cc1 | inactive
9 | Cc1cc(-c2nc(C)c(-c3nnc(SCC(=O)Nc4ccccc4)n3C)s2)no1 | inconclusive [inhibitor, single point]
10 | COc1cc(-c2nc(Cn3nnc(C(=O)Nc4ccc(C)cc4C)c3C)c(C)o2)cc(OC)c1OC | inconclusive [inhibitor, partial curve, poor fit]
11 | CCc1cnc2c(c1SCC(=O)c1ccc(OC)cc1)c(=O)n(C)c(=O)n2C | inactive
12 | CN(C)/C=C/C(=O)c1ccc(-c2ccc(Cl)cc2Cl)o1 | inactive
13 | COc1cc(NC(=O)COCc2cc(-c3ccc4c(c3)OCO4)on2)cc(OC)c1 | inactive
14 | CCC(=O)Nc1ccc2c(c1)C(=O)N(C1CCCCC1)C2=O | inactive
15 | O=C(CN1CCN(c2ccccc2O)CC1)NC(c1ccccc1)c1ccccc1 | inactive
16 | C=C(C)C(=O)Nc1cccc(C2=NOC3(C2)C[C@H](C(N)=O)N(C(=O)CC#N)C3)c1 (stereo partly drawn) | inconclusive [inhibitor, partial curve, poor fit]
17 | Cc1ccc(C(C(=O)NC2CCCCC2)N(Cc2ccco2)C(=O)Cc2c[nH]c3ccccc23)o1 (stereo not drawn) | inactive
18 | CN1CCN(S(=O)(=O)c2cccc(C(=O)Nc3sccc3C(N)=O)c2)CC1 | inconclusive [inhibitor, single point]
19 | O=C1NC(=Nc2ccccc2Cl)S/C1=C\c1cccc([N+](=O)[O-])c1O | inconclusive [inhibitor, partial curve, poor fit]
20 | CC1CCCC(C)N1/N=C/c1ccc([N+](=O)[O-])cc1 (stereo not drawn) | inactive
21 | COc1cc(N=c2ssnc2Cl)cc(OC)c1OC | inactive
22 | O=C(Nc1ccc(S(=O)(=O)O)cc1)c1ccc2c(c1)S(=O)(=O)c1ccccc1C2=O | inconclusive [inhibitor, single point]
23 | COc1ccc(NC(=O)c2cc([N+](=O)[O-])ccc2O)cc1 | inconclusive [inhibitor, partial curve, poor fit]

Row | Structure (SMILES) | Potency
24 | COc1ccc(C)cc1S(=O)(=O)NC1CC1 | inactive
25 | O=C(Nc1ccc2nc(-c3cccs3)c(-c3cccs3)nc2c1)NC1CC1 | inactive
26 | CCOc1ccc(N/C=C/C(=O)c2ccccc2)c([N+](=O)[O-])c1 | inconclusive [inhibitor, partial curve]
27 | Nc1ncnc2c1ncn2[C@@H]1O[C@H](COP(=O)(O)O)[C@@H](O)[C@H]1O | inconclusive [inhibitor, partial curve, poor fit]
28 | CCOC(=O)c1cc(-c2ccc(OC)cc2)nn1-c1ccccc1C(=O)O | inconclusive [inhibitor, partial curve, poor fit]
29 | COc1ccccc1NC(=O)COc1ccc(Br)cc1CNC1CCCC1 | inconclusive [inhibitor, partial curve, poor fit]
30 | O=c1ccc2c(-c3ccccc3S(=O)(=O)O)c3ccc(O)c(O)c3oc-2c1O | inconclusive [inhibitor, full curve, poor fit]
31 | CCN(CC(=O)Nc1c(F)cccc1F)C(=O)c1cccc(-n2cccc2)c1 | inconclusive [inhibitor, single point]
32 | CC(Sc1cccc[n+]1[O-])c1ccccc1 (stereo not drawn) | inconclusive [inhibitor, partial curve, poor fit]
33 | CCCCCCNC(=O)c1cc(-c2ccco2)nc2ccccc12 | inconclusive [inhibitor, partial curve]
34 | O=[N+]([O-])c1cc(/C=N/Nc2nc3ccccc3[nH]2)c(O)cc1O | inconclusive [inhibitor, partial curve, poor fit]
35 | CCn1c(/C=C/c2c(C)[nH]c3ccccc23)nc2ccccc2c1=O | inconclusive [inhibitor, single point]
36 | Cc1ccccc1-c1nc(-c2ccccn2)no1 | inconclusive [inhibitor, partial curve, poor fit]
37 | C/C(=N\OCC(=O)OCC(=O)NCc1ccccc1)c1ccc2c(c1)OCO2 | inconclusive [inhibitor, partial curve, poor fit]
38 | Cc1ccccc1Cn1c(=O)n(Cc2ccco2)c(=O)c2ccccc21 | inconclusive [inhibitor, single point]
39 | Clc1ccc(CN2C3=NCCCN3c3ccccc32)cc1Cl | inconclusive [inhibitor, single point]
40 | C#CCOc1ccc(C2CC(=O)Nc3c2c(C)nn3-c2nc(C)cc(C)n2)cc1 (stereo not drawn) | inconclusive [inhibitor, single point]
41 | COc1ccc(-c2cc3nc(C)cc(N)n3n2)cc1 | inconclusive [inhibitor, partial curve, poor fit]
42 | CCOc1ccc(-c2nnc(-c3ccc(OC)cc3)o2)cc1 | inactive
43 | C=C(C)C(=O)Nc1cccc(C2=NOC3(C2)C[C@@H](C(N)=O)N(C(=O)C2(C)CC2)C3)c1 (stereo partly drawn) | inconclusive [inhibitor, full curve, poor fit]
44 | O=C(NNc1cc(N2CCOCC2)nc(N2CCOCC2)n1)c1ccc([N+](=O)[O-])cc1 | inactive
45 | COc1cc2c(cc1OC)C(COc1ccc3c(C)cc(=O)oc3c1)N(C(=O)c1ccccc1F)CC2 (stereo not drawn) | inconclusive [inhibitor, partial curve, poor fit]
46 | COc1cccc(-c2ccc3c(N)c(C(=O)c4ccc(Br)cc4)sc3n2)c1 | inactive

Row | Structure (SMILES) | Potency
47 | Cc1noc(C)c1CSCC(=O)Nc1nc2c(F)cc(F)cc2s1 | inconclusive [inhibitor, partial curve, poor fit]
48 | O=C1c2ccccc2C(=O)c2c([N+](=O)[O-])ccc(O)c21 | inconclusive [inhibitor, partial curve, poor fit]
49 | COCCn1c(C)cc(C2=NNC(=NC3CC3)SC2)c1C | inconclusive [inhibitor, partial curve, poor fit]
50 | Cc1ccc(C2CC(C(F)F)n3ncc(C(=O)Nc4cnn(Cc5ccccc5C)c4)c3N2)cc1 (stereo not drawn) | inactive
51 | Cc1ccc(NC(=O)CCCn2c3ccccc3c(=O)c3cc(C)ccc32)c(Br)c1 | inactive
52 | CCc1ccc(CNc2ccc(O)cc2)cc1 | inconclusive [inhibitor, partial curve, poor fit]
53 | Cc1ccc(NC(=O)c2ccc(-n3cccn3)c([N+](=O)[O-])c2)cc1 | inactive
54 | COc1ccc2nc(NC(=O)c3ccoc3C)sc2c1 | inconclusive [inhibitor, partial curve]
55 | O=C(Nc1cccc(Oc2ccc(C(=O)O)c(C(=O)O)c2)c1)c1ccc(-c2ccccc2)cc1 | inconclusive [inhibitor, partial curve]
56 | C/C(=N\NC(=O)c1ccccc1NC(=O)c1ccc(Cl)cc1)c1ccncc1 | inconclusive [inhibitor, partial curve]
57 | COc1ccc(-c2c(-c3cc(OC)cc(OC)c3)n(C)c3ccc(-c4ccc(S(N)(=O)=O)cc4)cc23)cc1 | inactive
58 | COc1ccccc1N1CCN(c2ccc(-c3ccccc3)nn2)CC1 | inconclusive [inhibitor, partial curve]
59 | COc1cccc(-c2cn3nc(C)c(C)nc3n2)c1 | inconclusive [inhibitor, partial curve]
60 | CC(=O)Nc1ccc(S(=O)(=O)CC(=O)CS(=O)(=O)c2ccc(NC(C)=O)cc2)cc1 | inactive
61 | COc1cccc(/C=N/Nc2ccc(C(=O)O)cc2)c1O | inactive
62 | CC(CS(=O)(=O)c1ccc2c(c1)NC(=O)CS2)C(=O)N1CCN(c2cccc(Cl)c2)CC1 (stereo not drawn) | inconclusive [inhibitor, partial curve, poor fit]
63 | CS(=O)(=O)N1Cc2ccccc2CC1C(=O)OCC(=O)NCc1ccccc1 (stereo not drawn) | inactive
64 | Nc1c(C(=O)OCC(=O)Nc2cccc([N+](=O)[O-])c2)[nH]c(=O)[nH]c1=O | active: 17.8 µM
65 | Cn1nc(-c2ccc(Cl)cc2)c2cc(C(=O)N3CCCC3)sc21 | inactive
66 | O=C(NCCCN1CCCCCC1)c1ccc(CS(=O)(=O)Cc2ccccc2F)o1 | inactive
67 | CCOC(=O)C1(CCCc2ccccc2)CCN(C(=O)c2cc(C)nc(C)n2)CC1 | inactive
68 | Cc1cccc(NC(=O)CN2C(=O)S/C(=C\c3ccc(O)c([N+](=O)[O-])c3)C2=O)c1 | inconclusive [inhibitor, single point]
